Test results reported in PubChem BioAssay AID1159614 (National Center for Advancing Translational Sciences (NCATS), 2016).
About 65 (0.1%) of roughly 45,000 compounds were called active. Calls come from the whole dose curve; as a rule, active = well fitted activation curve with a large enough effect; inconclusive = small, poorly fitted or top-dose-only effect; inactive = no such curve, though single readings can be large or run the other way. The list shows a part of the results.

Target: Galactocerebrosidase (Homo sapiens) (UniProt P54803)
Assay: A Novel Cell-Based Assay to Identify Small Molecules for B -Galactocerebrosidase; note: 0% is about no effect; nearly all actives have a fitted effect of over 65% in size
Conditions: 145M-Twi-hGALC-G270D cells (Twitcher mouse brain line with human GALC G270D), HMU-beta-Gal fluorescence, 48 h; series mostly up to 57.5 µM; activation: at the top concentration
Summary of the method: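 Live 145M-Twi cells (Twitcher mouse brain-derived, GALC-null) stably expressing human GALC-G270D, with a wild-type GALC line, were compound-treated. Residual GALC activity was then read as fluorescence from 0.1 mM final HMU-β-gal at pH 5.2; higher signal means activation.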

Sequence of UniProt P54803 (P54803 whole entry, looked up): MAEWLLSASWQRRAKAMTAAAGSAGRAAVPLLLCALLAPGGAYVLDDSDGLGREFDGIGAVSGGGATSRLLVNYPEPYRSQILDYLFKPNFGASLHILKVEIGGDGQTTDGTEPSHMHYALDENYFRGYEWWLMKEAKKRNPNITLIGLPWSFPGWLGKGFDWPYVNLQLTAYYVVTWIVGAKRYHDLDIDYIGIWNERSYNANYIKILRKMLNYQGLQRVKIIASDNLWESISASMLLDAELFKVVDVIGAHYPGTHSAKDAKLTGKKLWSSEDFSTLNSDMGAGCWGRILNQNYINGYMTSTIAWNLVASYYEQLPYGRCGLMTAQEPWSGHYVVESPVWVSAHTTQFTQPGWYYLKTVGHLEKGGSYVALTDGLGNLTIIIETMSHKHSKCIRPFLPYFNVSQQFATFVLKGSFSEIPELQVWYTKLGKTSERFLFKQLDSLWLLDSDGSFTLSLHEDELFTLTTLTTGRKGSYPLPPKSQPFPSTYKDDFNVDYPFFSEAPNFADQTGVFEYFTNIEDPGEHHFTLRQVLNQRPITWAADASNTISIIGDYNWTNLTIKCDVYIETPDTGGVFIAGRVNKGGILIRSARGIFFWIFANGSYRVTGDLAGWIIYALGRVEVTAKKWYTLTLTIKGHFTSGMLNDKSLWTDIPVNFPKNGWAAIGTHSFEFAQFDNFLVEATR

activation, inactive:
Oc1ccc(/C=C/c2nc(-c3ccccc3O)n(-c3ccccc3)n2)c(O)c1 -23.8%
COc1cc(NS(=O)(=O)c2ccc3c(c2)CC(=O)N3)cc(OC)c1OC -7.96%
CCc1ccccc1NC(=O)Cn1nnc(-c2nc(-c3ccncc3)no2)c1N -18.8%
Cc1ccc(NC(=O)C2CCN(S(=O)(=O)c3ccc4c(c3)CCCC(=O)N4)CC2)c(Cl)c1 -28.4%
COc1ccc(CCNC(=O)c2ccc3c(c2)sc2nc(-c4ccc(C)cc4)cn23)cc1OC 1.73%
CCOc1ccc(Nc2c(S(=O)(=O)c3ccc(C)cc3)cnc3cc(OC)c(OC)cc23)cc1 -7.96%
COc1ccccc1NC(=O)CSC1=Nc2ccccc2C2=NC(CC(=O)NCCc3ccccc3)C(=O)N12 (configuration not stated) -3.91%
COc1cc(NS(=O)(=O)c2ccc3[nH]c(=O)[nH]c3c2)cc(OC)c1 -21.2%
CCOc1ccc(NC(=O)CN2CCN(CC(=O)Nc3ccc(N(CC)CC)cc3)CC2)cc1 -8.73%
CCCCC(=O)Nc1ccc2nc(SCC(=O)N3CCOCC3)sc2c1 -7.1%
Cc1ccc(NC(=O)c2c(C)oc3ncn(C)c(=O)c23)cc1F -13.8%
COc1cccc2c1Oc1ncccc1N(c1ccc(C(=O)NCc3ccccc3C)s1)C2 -8.25%
O=C(NCc1ccccc1Cl)c1ccc2c(c1)nnn2C1CCCC1 -11.1%
O=C(NC1(C(F)(F)F)C(=O)Nc2c1c(=O)[nH]c(=O)n2CCc1ccccc1)c1ccc(Cl)cc1 (configuration not stated) -8.83%
Cc1ccc(Cl)cc1NC(=O)c1ccc(NC(=O)N2CCSc3ncccc32)cc1 -10.3%
COc1ccccc1C(=O)n1nc(-c2cccnc2)nc1NCc1ccccc1 -11.6%
Cc1ccc(OCC(=O)Nc2nnc(SCc3cc(=O)c4ccccc4[nH]3)s2)cc1C 6.77%
Cc1cccc(-c2nc3c4ccccc4nc(N4CCN(c5ccc(F)cc5)CC4)n3n2)c1 -1.14%
CC1=C(c2ccc(C(C)C)cc2)S(=O)(=O)N=C1N1CCN(c2ccc(F)cc2)CC1 -5.23%
O=C(CCCc1ccccc1)NC1CC(=O)N(c2ccc(Cl)cc2)C1 (configuration not stated) -18.2%
CC1=Nc2cc(C(=O)NC3CCCCC3)ccc2Sc2ccc(Cl)cc21 -27.1%
COc1ccc(NC(=O)c2coc(=O)c3ccccc23)cc1OC -19%
O=C(Nc1ccc2oc(-c3ccccc3)nc2c1)c1ccc2ccccc2c1 5.63%
CC(=O)N1c2ccc(S(=O)(=O)N3CCCCCC3)cc2CC1C(=O)NCc1ccccc1 (configuration not stated) -4.55%
COCCn1c(C)cc(O)c(C(c2ccccc2)N2CCN(CCO)CC2)c1=O (configuration not stated) -1.92%
NNc1nnc(NN)c2ccccc12 -12.2%
COc1cc2c(cc1OC)C(COc1ccc3c(C)cc(=O)oc3c1)N(C(=O)c1cccc(OC)c1OC)CC2 (configuration not stated) 17%
Cc1ccc2c(n1)sc1c(=O)n(-c3cccc(C(F)(F)F)c3)nnc12 2.72%
Clc1ccc(OCc2nc(-c3ccc(-n4cccc4)cc3)no2)cc1 -18.2%
Cc1ccc(Cl)cc1NC(=O)CCCn1c(=O)c2cccn2c2ccccc21 -6.43%
COc1ccc2c(c1)c1c(c(=O)n(Cc3ccccc3)c(=O)n1CC(=O)Nc1cc(C)cc(C)c1)n2C 2.72%
CCOc1ccc(NC(=O)N2CCC(CN3CCCCCC3)CC2)cc1 -14.7%
Cc1cccc(N2CCN(C(=O)c3ccc4c(c3)c(C)c(C)n4C)CC2)c1C -8.66%
Cc1cc(C)cc(NC(=O)CSc2oc(-c3ccco3)nc2S(=O)(=O)c2ccccc2)c1 -9.66%
O=C(Nc1ccccc1OCc1cc(=O)n2ccccc2n1)c1cccc(Br)c1 -10.6%
CN(C(=O)CSc1nnc(-c2ccc([N+](=O)[O-])cc2)o1)C1CCCCC1 -14%
Cc1ccc(CN2CCSc3ccc(C(=O)Nc4cc(C)cc(C)c4)cc32)cc1 -16.1%
Cc1ccc(CCNC(=O)CCCn2c(=O)c3ccccc3n(CC(=O)Nc3cc(Cl)ccc3C)c2=O)cc1 -13%
CC(=O)N1CCc2c(sc3nc(SCC(N)=O)n(-c4ccc(F)c(Cl)c4)c(=O)c23)C1 -11.2%
COc1ccc(-c2nc3scc(CCNS(=O)(=O)c4cc(F)ccc4OC)n3n2)cc1OC -17.6%
COc1ccc(CCNC(=O)Cn2c(=O)cc(C(F)(F)F)c3c(C)nn(C)c32)cc1OC -0.768%
Clc1ccc(Nc2c(-c3cccs3)nc3ccc(Cl)cn23)cc1 16.1%
COc1ccccc1NC(=O)C1=C(C)Nc2nc(SCc3ccccc3F)nn2C1c1cccnc1 (configuration not stated) -13.3%
O=C(O)c1ccccc1O -10.1%
Cc1ccc(Cl)cc1NC(=O)c1sc2nc(-c3ccccc3)cn2c1C -7.84%
CCc1cccc(NC(=O)c2cc3c(=O)[nH]c4ccccc4c3n2C)c1 -7.53%
COc1ccc(CN(C)S(=O)(=O)c2nnc(NC(=O)C(C)C)s2)cc1OC -16.4%
CC(=O)c1cccc(NC(=O)CSc2nnc3ccc(-c4ccc(Cl)cc4)nn23)c1 -14.1%
CCOC(=O)c1sc2nc(C)n(CC(=O)Nc3cccc(Cl)c3)c(=O)c2c1C -0.0229%
Cc1ccc(C)c(CSC2=NC(C)(C)Nc3ccccc32)c1 -7.78%
CC(C)CN(CC(C)C)c1nc(-c2ccc(Cl)cc2)nc2ccccc12 -11%
C=CCc1c(C)nc2nc(SCC(=O)Nc3cccc(Cl)c3)nn2c1C -9.09%
COc1ccc(Cl)cc1NC(=O)Cn1c(=O)n(Cc2nc(C)no2)c(=O)c2ccccc21 0.111%
CCc1ccc(NC(=O)c2ccc3c(=O)n4nc(Nc5ccccc5C)sc4nc3c2)cc1 -13.1%
O=C(NCCCN1CCN(c2ccc(F)cc2)CC1)C1COc2ccccc2C1 (configuration not stated) -6.89%
O=C(CCS(=O)(=O)c1ccccc1)N(Cc1cccnc1)c1nc2c(Cl)cccc2s1 -22.6%
O=C(Nc1ccccc1C(=O)OCc1cc(=O)n2c3c(sc2n1)CCCC3)c1ccccc1 -20.3%
CO/N=C(/C(=O)N[C@@H]1C(=O)N2C(C(=O)O)=C(Cn3nnc(C)n3)CS[C@H]12)c1csc(N)n1 -2.85%
CCOC(=O)c1c(C)oc2nc(C)nc(N(CC(C)C)CC(C)C)c12 -24.1%
Cc1c(Cl)cccc1NC(=O)c1ccc2c(c1)nnn2C1CCCC1 6.77%
COc1ccc(C(=O)Nc2ccc(NC(=O)c3cccs3)cc2)cc1OC -10.4%
COc1ccccc1CCNC(=O)C(=O)NCC(c1ccco1)S(=O)(=O)c1cccs1 (configuration not stated) -12.2%
Cc1cccc(C(=O)NCC(c2cccs2)S(=O)(=O)c2cccs2)c1 (configuration not stated) -12%
CN(C)c1ccc(CN(Cc2ccco2)C(=O)COc2ccc(F)cc2)cc1 -16.2%
Cc1ccc(NC(=O)N2CC3CCCN3c3ccccc32)cc1C (configuration not stated) 0.322%
CCOc1ccc(C(=O)c2cn(CC(=O)Nc3ccc(OC)cc3)c3cc4c(cc3c2=O)OCO4)cc1 -24.3%
O=C(NCC(c1ccc2c(c1)OCO2)N1CCN(c2ccccc2)CC1)C(=O)Nc1ccc(F)cc1 (configuration not stated) -26.4%
CC1CCN(S(=O)(=O)c2ccc3c(c2)CCN3C(=O)Nc2cccc(Br)c2)CC1 -10.8%
Cc1ccc(-c2nc3n(n2)C(c2ccccc2Cl)C=C(c2ccc(Cl)cc2)N3)cc1 (configuration not stated) -7.57%
Cc1ccc(S(=O)(=O)NC2(C(F)(F)F)NC(=O)N(c3ccc(F)cc3)C2=O)cc1 (configuration not stated) 4.32%
CCOCCc1nn2c(=O)cc(COC(=O)c3ccccc3NC(=O)c3ccccc3F)nc2s1 -8.8%
CCOC(=O)c1ccc(CN(Cc2ccc(C)cc2)S(=O)(=O)c2ccc(F)c(C(=O)Nc3ccc(C)c(F)c3)c2)cc1 -4.06%
N#Cc1c[nH]n2c(NC3CCCC3)c(-c3cccc(Br)c3)nc12 -14.9%
COC(=O)c1sccc1S(=O)(=O)N(CC(=O)NCc1ccc(C)cc1)c1ccccc1 -2.03%
CCOC(=O)c1c(C)[nH]c(C)c1S(=O)(=O)N1CCCC(C(=O)Nc2ncccc2C)C1 (configuration not stated) -11.4%
Cc1oc(-c2ccc(C(=O)NCCC(C)C)cc2)nc1CS(=O)(=O)c1ccccc1 -10.2%
CCS(=O)(=O)N1CC(=O)N(c2cccc(Cl)c2)C(C)(C(=O)NC2CCCCCC2)C1 (configuration not stated) -0.943%
CC(C)CCn1c(=O)c2cccnc2n(CC(=O)Nc2ccccc2)c1=O 3.43%
CCCC(=O)N1CCc2cc(OC)c(OC)cc2C1COc1ccccc1OC (configuration not stated) -23.4%
CCc1ccc(CNc2ncc(-c3cccc(OC)c3)n2C)cc1 -41.3%
CCOCCCn1c(=N)c(C(=O)NC(C)c2ccccc2)cc2c(=O)n3cc(C)ccc3nc21 (configuration not stated) -7.52%
Cc1ccn2c(NC(=O)c3cccc(Cl)c3)c(-c3ccccc3)nc2c1 3.77%
CCc1cccc(CC)c1NC(=O)CN(CC(=O)O)CC(=O)O -7.49%
CCOC(=O)Cc1cc(C(=O)Nc2ccc(Br)cc2)sc1-c1ccc(C)cc1 -14.8%
Cc1cccc(C)c1NC(=O)Cn1c(=O)n(Cc2ccc(C(=O)NCc3ccco3)cc2)c(=O)c2sccc21 4.8%
Cc1c(C(=O)N(Cc2ccc(N(C)C)cc2)CC2CCCO2)oc2ccccc12 (configuration not stated) 1.63%
Cc1ccc2c(Sc3ccc(Cl)cc3)c(C(=O)NCCC(C)C)[nH]c2c1 -26.9%
Cc1cccc(N2CCN(C(=O)c3ccc4nc(N5CCC(C)CC5)sc4c3)CC2)c1C -22.3%
Cc1nc2sc(C)c(C)n2c(=O)c1S(=O)(=O)N1CCN(c2ccccc2F)CC1 -14.5%
Cc1cc(C)cc(OCC(=O)Nc2nonc2-c2ccc(Br)cc2)c1 -7.21%
COc1ccc2[nH]cc(CCNC(=O)Nc3ccccc3)c2c1 -4.31%
Cc1ccc(NC(=O)CN2C(=O)c3cccnc3Sc3ccccc32)cc1C -17.5%
COc1ccc(CN(C(=O)c2ccccc2F)C2CCS(=O)(=O)C2)cc1 (configuration not stated) -27.1%
CCCSc1ncc(Cl)c(C(=O)Nc2ccc(S(=O)(=O)N3CCCC(C)C3)cc2)n1 (configuration not stated) -9.17%
O=C(Nc1nc2c(F)cccc2s1)c1ccc(S(=O)(=O)N2CCOCC2)cc1 -4.23%
CCc1nnc(SCc2nc(-c3ccccc3Cl)oc2C)c2cc3sc(C)cc3n12 -6.01%
CCOc1ccc(C(=O)OCCN(CC)CC)cc1 -14.8%
